Results as given in the supplement of paper PMC10338343.
± gives the standard deviation. This is a selection; strong and weak results do not stand in their true shares.

System: MIWI (PIWIL1) piRISC loaded with piRNA #1 (30 nt)
Assay: pre-steady-state target cleavage rate (min^-1); MIWI and MILI are mouse PIWI proteins and EfPiwi is from a freshwater sponge; tags in brackets are library labels; higher = faster piRNA-guided slicing of the target
Conditions: guide: piRNA #1 5'p-UGAGGUAGUAGGUUGUAUAGUAUCCAGAGG; auxiliary factor: 500 nM mouse GTSF1
In short: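 Three pooled Cleave-'n-Seq trials supplied the data, with k3 capped at 0.0001 min^-1. In each, […] transcribed, DNA-blocked target RNA library and 1 nM active affinity-purified piRISC with one synthetic guide reacted in HEPES–potassium acetate buffer at 33 °C for 0–8 or 0–960 min, with or without 500 nM GTSF1 partner protein. Uncleaved targets were sequenced and normalised to depth and to weakly complementary targets. A burst-and-steady-state fit provided the pre-steady-state cleavage rate.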
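Note: 1 nM active piRISC with 0.1 nM target library at 33 °C single turnover.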

Sequence	pre-steady-state target cleavage rate
GGAGACCUUACUAUAGAACGUACUACCUCA	0.241 ± 0.022
GGACUGGAUAGUUUACAACCUACUACCUCA	0.624 ± 0.066
GGAGACGAUACUAUUCAACCUAGUACCUCA	0.35 ± 0.035
GGAGAGGAUACUAUACAACCUACUUCGUCA	0.00318 ± 0.0019
GGACUGGAUACUAUUCAACCUAGUACCUCA	0.334 ± 0.065
GGAGACGAUACUUUACAACCUACUACCUCA	1.56 ± 0.088
GCUCUGGAUACUAUGCAACCUACUACCUCA	1.84 ± 0.1
GGAGACGAUACUAUACAAUCUACUACCUCA	0.409 ± 0.024
GGAGACCUUACUAUACAACCUUCAACCUCA	0.142 ± 0.022
GGUCUGGAUACUAUACAACCUACUACCUGCA	0.643 ± 0.074
GGAGACCUAUGAAUACAAGCAACUACCUCA	< 0.0001
GGAGACCAUACUGUACAACCUACUACCUCA	0.439 ± 0.034
GGACUGGAUACUAUACAACCAACUAGCUCA	0.0135 ± 0.0029
GGAGACGAUACUAUACAAACUACUACCUCA	0.912 ± 0.039
GGAGACCUUACUAUUCAACGUACUACCUCA	0.204 ± 0.021
GCUCUGGAUACUCAUACAACCUACUACCUCA	1.31 ± 0.068
GGAGACCAUACUAUACAACCUAUCUACCUCA	0.163 ± 0.017
GCUCUGGAUACUUUACAACCUACUAGCUCA	0.805 ± 0.073
GGAGUGGAUACUAUACAAGCAACUACCUCA	0.0272 ± 0.0039
GGAGACGAUACUCAUACAACCUACUACCUCA	1.3 ± 0.081

Sequence	pre-steady-state target cleavage rate
GGAGACCUAUCUAUUCAACCUAGUACCUCA	0.0592 ± 0.013
GGAGACCUUACUAUACAACCUACUACCUGCA	1.21 ± 0.098
GGUCUGGAUACUAUACAACCUACAUCCUCA	0.0497 ± 0.0096
GGAGACGAUACUAUACAACGUACUACCUGA	0.283 ± 0.041
GGAGAGGAUAGAUUACAACCUACUACCUCA	0.178 ± 0.019
GGUCUCGAUACUAUACAACCUAGUACCUCA	0.692 ± 0.069
GGUCUGGAUACUAUACAACCUACUACGCUCA	0.768 ± 0.08
GGACUGGAUACUAUACACCCUACUACCUCA	1.58 ± 0.13
GGUGACGAUACUAUACAACCUACUACCUCA	1.82 ± 0.098
GGAGUGGAUACUAUUACAACCUACUACCUCA	1.41 ± 0.11
GCUCUGGAUAGUAUACAACCUACUUCCUCA	0.527 ± 0.043
CCUCUGGAUACAAUACAACCUACAACCUCA	1.52 ± 0.11
GGAGACCUAACUAUACAACCUACUACCGCA	1.04 ± 0.078
CCUCUGGAGUACUAUACAACCUACUACCUCA	0.572 ± 0.046
GGAGACCAUACUAUAAAACCUACUACCUCA	1.3 ± 0.082
GGAGACCUAUGAUAUGUUGGUACUACCUCU [g2:g10:cont:t1U]	< 0.0001
GGACUGGAUACUAAACAACCUACUACCUCA	1.62 ± 0.12
GGAGCGGAUACUAUACAACCUACUACCUCA	1.81 ± 0.13
GGAGAGGAUUCUAUUCAACCUACUACCUCA	1.42 ± 0.087
GGAGACCAUACUAUAGUUCCUACUACCUCA	0.00917 ± 0.0016
